# Laboratory results from PMC4336329 (PLoS ONE, 2015).
# In all, about 310,000 compounds went through this assay and about 2,200 (0.71%) showed an effect of 50% or more. The effect is printed as a negative number. The list shows a part of the results.
# Target: human ether-à-go-go-related gene (hERG) potassium channel (human, UniProt Q12809)
# Assay: primary screen, population patch clamp on CHO cells stably expressing hERG
# human ether-à-go-go-related gene (hERG) potassium channel, sequence (Q12809 whole entry, looked up): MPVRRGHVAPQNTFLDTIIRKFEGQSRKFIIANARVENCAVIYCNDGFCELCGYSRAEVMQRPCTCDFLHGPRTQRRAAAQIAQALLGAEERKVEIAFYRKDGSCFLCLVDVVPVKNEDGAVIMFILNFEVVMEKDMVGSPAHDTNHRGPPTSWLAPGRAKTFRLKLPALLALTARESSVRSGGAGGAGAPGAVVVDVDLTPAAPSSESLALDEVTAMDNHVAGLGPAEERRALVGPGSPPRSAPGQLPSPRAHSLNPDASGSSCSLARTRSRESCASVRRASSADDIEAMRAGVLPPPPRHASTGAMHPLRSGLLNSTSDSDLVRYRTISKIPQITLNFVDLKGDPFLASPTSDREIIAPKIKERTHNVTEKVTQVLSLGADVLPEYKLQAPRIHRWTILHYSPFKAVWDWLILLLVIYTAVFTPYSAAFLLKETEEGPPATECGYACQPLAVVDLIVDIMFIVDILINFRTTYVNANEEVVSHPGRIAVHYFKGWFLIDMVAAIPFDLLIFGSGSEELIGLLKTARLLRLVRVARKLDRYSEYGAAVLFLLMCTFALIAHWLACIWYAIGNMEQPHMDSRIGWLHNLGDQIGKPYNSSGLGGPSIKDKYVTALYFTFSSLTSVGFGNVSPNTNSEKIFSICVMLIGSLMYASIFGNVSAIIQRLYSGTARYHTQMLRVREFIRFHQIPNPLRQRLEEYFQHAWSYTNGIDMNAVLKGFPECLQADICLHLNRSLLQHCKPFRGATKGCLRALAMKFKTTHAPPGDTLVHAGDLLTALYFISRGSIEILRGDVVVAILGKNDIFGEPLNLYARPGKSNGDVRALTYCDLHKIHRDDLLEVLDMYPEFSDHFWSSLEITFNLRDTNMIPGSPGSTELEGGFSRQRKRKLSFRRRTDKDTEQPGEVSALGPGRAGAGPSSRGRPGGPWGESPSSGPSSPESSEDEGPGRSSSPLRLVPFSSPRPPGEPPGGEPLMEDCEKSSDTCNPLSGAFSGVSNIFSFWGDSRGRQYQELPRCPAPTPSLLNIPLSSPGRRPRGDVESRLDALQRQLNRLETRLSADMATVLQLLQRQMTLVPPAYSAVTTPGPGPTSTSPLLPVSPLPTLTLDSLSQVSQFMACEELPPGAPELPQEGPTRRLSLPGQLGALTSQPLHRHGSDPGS
row,SMILES,"hERG current change (%, negative = inhibition) at 1uM [%]"
1,COC(c1ccccc1)c1nnc(CCC(=O)N2CCN(C3CCCC3)CC2)o1 (centres unmarked),-33.3
2,Cc1nn(-c2ccc(F)cc2)c(Cl)c1/C=C/C(=O)OCC(=O)Nc1c(F)c(F)c(F)c(F)c1F,4.99
3,COCCNS(=O)(=O)c1ccc(F)c(OC)c1,5.01
4,Cc1c(C(=O)OC(C)C)nnn1-c1nonc1N,7.09
5,CCC(=O)N1CC(=O)Nc2ccc(F)cc2C1c1ccccc1 (centres unmarked),14.8
6,Cn1c(-c2ccc[nH]c2=O)nc2cc(Cl)ccc21,15.7
7,NC(=O)CC(NC(=O)Cc1ccc(Br)cc1)c1ccc(NC2CCCC2)c([N+](=O)[O-])c1 (centres unmarked),3.31
8,O=C(COC(=O)C1CCN(c2ccc(C(F)(F)F)cn2)CC1)NCc1ccccc1,11.1
9,O=C(c1cccc(S(=O)(=O)N2CCN(c3ccccc3)CC2)c1)N1CCCCCCC1,-4.16
10,COc1ccc(-n2c(SCC(=O)Nc3ccc4c(c3)OCO4)nc3ccccc3c2=O)cc1,2.4
11,Cc1ccc(NC(=O)C2CC(=O)N(C(C)C)C2)cc1C (centres unmarked),13.8
12,Cc1cccc(N2CCN(S(=O)(=O)c3ccc4c(c3)CC(=O)N4C)CC2)c1C,17.4
13,COc1ccc(N2CCN(C(=O)CCc3c[nH]c4ccccc34)CC2)cc1,8.33
14,Clc1ccc2[nH]c3c(N4CCC5(CC4)OCCO5)ncnc3c2c1,-9.17
15,Cc1ccccc1-c1nnc(SCC(=O)NC2CCCC2)n1C,4.56
16,CC(C)C[C@H](NC(=O)OC(C)(C)C)C(=O)N/N=C/c1ccc2nccnc2c1,1.92
17,CN(C(=O)Cn1cnc([N+](=O)[O-])n1)C1CCCCC1,5.68
18,O=C(Nc1nc(-c2ccncc2)cs1)c1ccc(F)cc1,-7.65
19,Cc1ccc(S(=O)(=O)NNC(=O)c2cc([N+](=O)[O-])c(C)c([N+](=O)[O-])c2)cc1,16
20,CCC(C(=O)c1ccccc1)P(=O)(NN)c1ccccc1 (centres unmarked),13.7
21,NS(=O)(=O)c1ccc2c(c1)C1C=CCC1C(C1CC=CCC1)N2 (centres unmarked),12.2
22,Cc1cccnc1NC(=O)c1cccc(S(=O)(=O)N2CCCC2)c1,-5.52

row,SMILES,"hERG current change (%, negative = inhibition) at 1uM [%]"
1,COc1cc(NC(=O)COC(=O)c2ccccc2F)cc(OC)c1,5.51
2,CCN1C(=O)c2cccc3c(S(=O)(=O)Nc4ccccc4OC)ccc1c23,-1.68
3,Cn1c(Cc2ccccc2)nnc1SCC(=O)NC1CCCCC1,13.5
4,CC1(C)S[C@@H]2[C@H](NC(=O)[C@H](N)c3ccccc3)C(=O)N2[C@H]1C(=O)OC1OC(=O)c2ccccc21.Cl (some centres unmarked),3.19
5,CCOC(=O)CN1CC23C=CC(O2)C(C(=O)NCc2cccs2)C3C1=O (centres unmarked),6.68
6,COC(=O)c1sc(NC(=S)NC(=O)c2ccccc2)nc1C,7.92
7,CCOC(=O)N1CCN(C(=O)C(C)c2ccc([N+](=O)[O-])cc2)CC1 (centres unmarked),3.63
8,Cc1c(Cl)cccc1NC(=O)NCc1ccc(F)cc1,15.7
9,N/C(=N\OC(=O)Cc1cccc2ccccc12)c1ccccn1,10
10,Nn1c(-c2cccc([N+](=O)[O-])c2)nc2ccccc2c1=O,6.24
11,CCc1nnc(NS(=O)(=O)c2ccc(NC(=S)NC(=O)/C=C/c3ccc([N+](=O)[O-])cc3)cc2)s1,17.3
12,COc1ccccc1-n1c(SCC(=O)NC(C)(C)C)nnc1-c1ccco1,-1.57
13,COc1ccc(C(=O)NCCc2nc3cc([N+](=O)[O-])ccc3n2C)cc1,-8.03
14,COc1cc(C)ccc1OCCOc1ccccc1Cl,13.7
15,CCCOc1ccc(CC(=O)NCC2(c3ccccc3)CCOCC2)cc1OC,14.3
16,COc1cc(SC)ccc1C(=O)Nc1c(C)cccc1C,-6.97
17,O=C(CCNS(=O)(=O)c1ccccc1)OCc1nc2ccsc2c(=O)[nH]1,3.52
18,CN(C)C(=O)CSc1nc2ccccc2c(=O)[nH]1,9.1
19,Cc1cc(C(=O)NC2CCCc3c2cnn3-c2ccc(C)c(C)c2)no1 (centres unmarked),1.86
20,O=C(CSc1ccc2nnc(-c3ccccn3)n2n1)Nc1cccc(F)c1,-7.83
21,Cc1cc(C)n2nc(C(=O)N3CCCC(Nc4ccc(C(C)C)cc4)C3)cc2n1 (centres unmarked),8.9
22,Cc1cc(C)c(OCC(=O)N2CC=C(c3ccccc3)CC2)c(C)c1,7.23
